The values below come from the supplement of paper PMC8728848.

What all share (experiment): glycan array binding signal (z-score within array); higher = stronger binding
Details in all cases: glycan notation: IUPAC condensed, linker removed

Test [1] concerns the target Gal(b1-4)GlcNAc(b1-3)Gal(b1-4)GlcNAc(b1-2)[Gal(b1-4)GlcNAc(b1-3)Gal(b1-4)GlcNAc(b1-6)]Man(a1-6)[Gal(b1-4)GlcNAc(b1-3)Gal(b1-4)GlcNAc(b1-2)Man(a1-3)]Man(b1-4)GlcNAc(b1-4)GlcNAc. The procedure, abridged:
(§1)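 The Consortium for Functional Glycomics database supplied 3228 glycan arrays, of which those lacking an available protein sequence were dropped. The binding signal, a within-array Z-score, was averaged across arrays of the same protein sequence and across linkers. Negative scores can be read as non-binding.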

Test [2] has as its target Gal(b1-4)GlcNAc(b1-3)Gal(b1-4)GlcNAc(b1-2)[Gal(b1-4)GlcNAc(b1-3)Gal(b1-4)GlcNAc(b1-6)]Man(a1-6)[Gal(b1-4)GlcNAc(b1-3)Gal(b1-4)GlcNAc(b1-2)Man(a1-3)]Man(b1-4)GlcNAc(b1-4)[Fuc(a1-6)]GlcNAc. Put shortly: as §1
For test [3], the target named is Gal(b1-4)GlcNAc(b1-3)Gal(b1-4)GlcNAc(b1-3)Gal(b1-4)GlcNAc. Put shortly:
as §1

In test [4] the target is Gal(b1-4)GlcNAc(b1-3)Gal(b1-4)GlcNAc(b1-3)Gal(b1-4)GlcNAc(b1-2)Man(a1-3)[Gal(b1-4)GlcNAc(b1-3)Gal(b1-4)GlcNAc(b1-3)Gal(b1-4)GlcNAc(b1-2)Man(a1-6)]Man(b1-4)GlcNAc(b1-4)GlcNAc. Put shortly: as §1
In test [5] the target is Gal(b1-4)GlcNAc(b1-3)Gal(b1-4)GlcNAc(b1-3)Gal(b1-4)GlcNAc(b1-2)Man(a1-3)[Gal(b1-4)GlcNAc(b1-3)Gal(b1-4)GlcNAc(b1-3)Gal(b1-4)GlcNAc(b1-2)Man(a1-6)]Man(b1-4)GlcNAc(b1-4)[Fuc(a1-6)]GlcNAc. The procedure, abridged:
as §1

Test [6] addresses Gal(b1-4)GlcNAc(b1-3)Gal(b1-4)GlcNAc(b1-3)Gal(b1-4)GlcNAc(b1-2)[Gal(b1-4)GlcNAc(b1-3)Gal(b1-4)GlcNAc(b1-3)Gal(b1-4)GlcNAc(b1-6)]Man(a1-6)[Gal(b1-4)GlcNAc(b1-3)Gal(b1-4)GlcNAc(b1-3)Gal(b1-4)GlcNAc(b1-2)Man(a1-3)]Man(b1-4)GlcNAc(b1-4)[Fuc(a1-6)]GlcNAc. The procedure, abridged: as §1
Test [7] addresses Gal(b1-4)GlcNAc(b1-3)Gal(b1-4)GlcNAc(b1-3)Gal(b1-4)GlcNAc(b1-3)Gal(b1-4)GlcNAc(b1-2)Man(a1-3)[Gal(b1-4)GlcNAc(b1-3)Gal(b1-4)GlcNAc(b1-3)Gal(b1-4)GlcNAc(b1-3)Gal(b1-4)GlcNAc(b1-2)Man(a1-6)]Man(b1-4)GlcNAc(b1-4)GlcNAc. Put shortly: as §1
Test [8] deals with Gal(b1-4)GlcNAc(b1-3)Gal(b1-4)GlcNAc(b1-3)Gal(b1-4)GlcNAc(b1-3)Gal(b1-4)GlcNAc(b1-2)Man(a1-3)[Gal(b1-4)GlcNAc(b1-3)Gal(b1-4)GlcNAc(b1-3)Gal(b1-4)GlcNAc(b1-3)Gal(b1-4)GlcNAc(b1-2)Man(a1-6)]Man(b1-4)GlcNAc(b1-4)[Fuc(a1-6)]GlcNAc. Put shortly:
as §1

In test [9] the target is Gal(b1-4)GlcNAc(b1-3)Gal(b1-4)GlcNAc(b1-3)Gal(b1-4)GlcNAc(b1-3)Gal(b1-4)GlcNAc(b1-2)[Gal(b1-4)GlcNAc(b1-3)Gal(b1-4)GlcNAc(b1-3)Gal(b1-4)GlcNAc(b1-3)Gal(b1-4)GlcNAc(b1-6)]Man(a1-6)[Gal(b1-4)GlcNAc(b1-3)Gal(b1-4)GlcNAc(b1-3)Gal(b1-4)GlcNAc(b1-3)Gal(b1-4)GlcNAc(b1-2)Man(a1-3)]Man(b1-4)GlcNAc(b1-4)[Fuc(a1-6)]GlcNAc. Put shortly: as §1
In test [10] the target is Gal(b1-4)GlcNAc(b1-3)Gal(b1-4)GlcNAc(b1-3)Gal(b1-4)GlcNAc(b1-3)Gal(b1-4)GlcNAc(b1-3)Gal(b1-4)GlcNAc(b1-2)Man(a1-3)[Gal(b1-4)GlcNAc(b1-3)Gal(b1-4)GlcNAc(b1-3)Gal(b1-4)GlcNAc(b1-3)Gal(b1-4)GlcNAc(b1-3)Gal(b1-4)GlcNAc(b1-2)Man(a1-6)]Man(b1-4)GlcNAc(b1-4)GlcNAc. The procedure, abridged: as §1
For test [11], the target named is Gal(b1-4)GlcNAc(b1-3)Gal(b1-4)GlcNAc(b1-3)Gal(b1-4)GlcNAc(b1-3)Gal(b1-4)GlcNAc(b1-3)Gal(b1-4)GlcNAc(b1-2)Man(a1-3)[Gal(b1-4)GlcNAc(b1-3)Gal(b1-4)GlcNAc(b1-3)Gal(b1-4)GlcNAc(b1-3)Gal(b1-4)GlcNAc(b1-3)Gal(b1-4)GlcNAc(b1-2)Man(a1-6)]Man(b1-4)GlcNAc(b1-4)[Fuc(a1-6)]GlcNAc. Put shortly: as §1
Test [12] deals with Gal(b1-4)GlcNAc(b1-3)Gal(b1-4)GlcNAc(b1-3)Gal(b1-4)GlcNAc(b1-3)Gal(b1-4)GlcNAc(b1-3)Gal(b1-4)GlcNAc(b1-2)[Gal(b1-4)GlcNAc(b1-3)Gal(b1-4)GlcNAc(b1-3)Gal(b1-4)GlcNAc(b1-3)Gal(b1-4)GlcNAc(b1-3)Gal(b1-4)GlcNAc(b1-6)]Man(a1-6)[Gal(b1-4)GlcNAc(b1-3)Gal(b1-4)GlcNAc(b1-3)Gal(b1-4)GlcNAc(b1-3)Gal(b1-4)GlcNAc(b1-3)Gal(b1-4)GlcNAc(b1-2)Man(a1-3)]Man(b1-4)GlcNAc(b1-4)[Fuc(a1-6)]GlcNAc. Put shortly: as §1

Test [13] has as its target Gal(b1-4)GlcNAc(b1-3)Gal(b1-4)GlcNAc(b1-3)Gal(b1-4)GlcNAc(b1-3)Gal(b1-4)GlcNAc(b1-3)Gal(b1-4)GlcNAc(b1-3)Gal(b1-4)GlcNAc(b1-2)Man(a1-3)[Gal(b1-4)GlcNAc(b1-3)Gal(b1-4)GlcNAc(b1-3)Gal(b1-4)GlcNAc(b1-3)Gal(b1-4)GlcNAc(b1-3)Gal(b1-4)GlcNAc(b1-3)Gal(b1-4)GlcNAc(b1-2)Man(a1-6)]Man(b1-4)GlcNAc(b1-4)GlcNAc. The procedure, abridged: as §1
Test [14] concerns the target Gal(b1-4)GlcNAc(b1-3)Gal(b1-4)GlcNAc(b1-3)GalNAc. Put shortly:
as §1

Test [15] has as its target Gal(b1-4)GlcNAc(b1-3)Gal(b1-4)GlcNAc(b1-3)[Gal(b1-4)GlcNAc(b1-3)Gal(b1-4)GlcNAc(b1-6)]GalNAc. Put shortly:
as §1

Test [16] concerns the target Gal(b1-4)GlcNAc(b1-3)Gal(b1-4)GlcNAc(b1-6)[Gal(b1-3)]GalNAc. The procedure, abridged:
as §1

Test [17] has as its target Gal(b1-4)GlcNAc(b1-3)Gal(b1-4)[Fuc(a1-3)]GlcNAc(b1-3)Gal(b1-4)[Fuc(a1-3)]GlcNAc. The procedure, abridged: as §1
The target of test [18] is Gal(b1-4)GlcNAc(b1-3)GalNAc. Put shortly:
as §1

Test [19] addresses Gal(b1-4)GlcNAc(b1-3)[Fuc(a1-3)GlcNAc(b1-6)]Gal(b1-4)Glc. Put shortly:
as §1

In test [20] the target is Gal(b1-4)GlcNAc(b1-3)[Gal(b1-4)GlcNAc(b1-6)]Gal(b1-4)GlcNAc. Put shortly: as §1
In test [21] the target is Gal(b1-4)GlcNAc(b1-3)[GlcNAc(b1-6)]Gal(b1-4)GlcNAc. Put shortly:
as §1

For test [22], the target named is Gal(b1-4)GlcNAc(b1-6)Gal(b1-4)GlcNAc. The procedure, abridged:
as §1

The other results are listed elsewhere or left out.

B1: Epa3to1 (Candida glabrata) (protein)
chain: MGSSHHHHHHSSGLVPRGSHMKRELSSQNPFGYPIGCSPQDVAIIPGLTMELYSYPIVSGTPPNCYDASYVDPEYPRTGYLKRKMVGKSTGVTGNLNYKYSVEKACMVKYGNLPAGYNYNEPLTVSNFTMILYGYFKAQTTGLHTFFVNADDLLYINFGAGNAFDCCKREDSKTKLGEYVAYDIWHVDSSKNKVSLFLEKDLYYPIRMFFNNREYDSSLDLSFSVNGATDQISDFSGYLYSVPDQPDTCPAHIGYDTTCR
Regarding B1, the “glycan array binding signal (z-score)” value in test [1] was 7.55; in test [2] it was -0.165; in test [3] it was -0.666; in test [4], -0.228; in [5], -0.21; in test [6], -0.176. Further, the “glycan array binding signal (z-score)” value was -0.05 in test [7]; 0.268 in test [8]; -0.602 in test [9]; -0.281 in [10]; -0.649 in test [11]; 0.311 in test [12]. Also, the “glycan array binding signal (z-score)” value in [13] was 0.127; in [14], 0.334; in [15] it was 0.067; in [16] it was -0.038; in test [17] it was 0.092; in [18], -0.338. The “glycan array binding signal (z-score)” value is 2.39 in [19], 0.35 in test [20], -1.44 in [21] and 0.054 in [22].
